IC50 is the fitted dose that halves viability relative to control wells, and lower means more sensitive; a limit (>, <) means that the fit lies beyond the doses tested. For AUC the same curve is integrated over the 256-fold range of doses and scaled to a fraction; values near 1 show little effect. For part of these data: An inferred top dose was derived from the fitted curves, not read from the paper. For part of these data: Where an entry number is given, a second screen of the drug exists; the two often differ.
How the values were obtained:
PAC-1 = compound: C=CCc1cccc(/C=N/NC(=O)CN2CCN(Cc3ccccc3)CC2)c1O [PAC-1]; assay: Viability of human cancer cell lines after 72 h of drug (GDSC screen); conditions: top dose 2.56 µM
Procedure: (§1)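 Human cancer cell lines in 384-well plates, medium with 10% serum, drug for 72 h over a 256-fold dose range (nine 2-fold or five 4-fold steps up to the top dose). Adherent lines were fixed and stained with the nucleic acid dye Syto60, suspension lines read with resazurin; signal relative to control wells, capped at 0 and 100%. One two-parameter sigmoid per drug and line, fitted in a mixed model over all curves with the slope shared within a line.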

BMS-708163 = compound: NC(=O)[C@@H](CCC(F)(F)F)N(Cc1ccc(-c2ncon2)cc1F)S(=O)(=O)c1ccc(Cl)cc1 [BMS-708163]; assay: as above; conditions: top dose 5 µM; screen: GDSC drug entry 1072; top dose inferred
Procedure: as §1

Cell Line | AUC (PAC-1) | IC50 (PAC-1) [µM] | AUC (BMS-708163) | IC50 (BMS-708163) [µM]
HSC-3 (head and neck, adherent) | 0.987 | > 2.56 | 0.97 | > 5
HSC-4 (head and neck, adherent) | 0.971 | > 2.56 | 0.954 | > 5
HT55 (large intestine, adherent) | 0.987 | > 2.56 | 0.971 | > 5
HT-3 (cervix, adherent) | 0.936 | > 2.56 | 0.971 | > 5
HT-29 (large intestine, adherent) | 0.846 | 1.85 | 0.916 | > 5
HT-115 (large intestine, adherent) | 0.972 | > 2.56 | 0.978 | > 5
HT-1080 (fibrosarcoma, adherent) | 0.989 | > 2.56 | 0.893 | 4.87
HT-1197 (bladder, adherent) | 0.967 | > 2.56 | 0.93 | > 5
HTC-C3 (thyroid, adherent) | 0.901 | > 2.56 | 0.966 | > 5
HeLa (cervix, adherent) | 0.986 | > 2.56 | 0.987 | > 5
Hep 3B2_1-7 (liver, adherent) | 0.862 | 2.19 | 0.95 | > 5
Hs633T (fibrosarcoma, adherent) | 0.885 | 1.91 | 0.963 | > 5
Hs683 (glioma, adherent) | 0.865 | 2.31 | 0.988 | > 5
Hs766T (pancreas, adherent) | 0.974 | > 2.56 | 0.98 | > 5
Hs939-T (melanoma, adherent) | 0.966 | > 2.56 | 0.985 | > 5
Hs940-T (melanoma, adherent) | 0.896 | > 2.56 | 0.959 | > 5
Hs-578-T (breast, adherent) | 0.987 | > 2.56 | 0.987 | > 5
HuCCT1 (biliary tract, adherent) | 0.805 | 1.47 | 0.978 | > 5
HuH-7 (liver, adherent) | 0.985 | > 2.56 | 0.961 | > 5
HuO9 (osteosarcoma, adherent) | 0.984 | > 2.56 | 0.912 | > 5
HuO-3N1 (osteosarcoma, adherent) | 0.962 | > 2.56 | 0.915 | > 5
HuP-T3 (pancreas, adherent) | 0.873 | > 2.56 | 0.971 | > 5
HuP-T4 (pancreas, adherent) | 0.982 | > 2.56 | 0.897 | > 5
IA-LM (large cell lung carcinoma, adherent) | 0.985 | > 2.56 | 0.982 | > 5
IGR-1 (melanoma, adherent) | 0.943 | > 2.56 | 0.665 | 0.842

Cell Line | AUC (PAC-1) | IC50 (PAC-1) [µM] | AUC (BMS-708163) | IC50 (BMS-708163) [µM]
IGR-37 (melanoma, adherent) | 0.981 | > 2.56 | 0.989 | > 5
IHH-4 (thyroid, semi-adherent) | 0.982 | > 2.56 | 0.989 | > 5
IM-95 (stomach, adherent) | 0.867 | > 2.56 | 0.986 | > 5
IPC-298 (melanoma, adherent) | 0.97 | > 2.56 | 0.98 | > 5
J82 (bladder, adherent) | 0.848 | 1.9 | 0.955 | > 5
JEG-3 (urogenital system, adherent) | 0.972 | > 2.56 | 0.938 | > 5
JHH-1 (liver, adherent) | 0.973 | > 2.56 | 0.97 | > 5
JHH-2 (liver, adherent) | 0.986 | > 2.56 | 0.981 | > 5
JHH-4 (liver, adherent) | 0.925 | > 2.56 | 0.986 | > 5
JHH-6 (liver, adherent) | 0.987 | > 2.56 | 0.983 | > 5
JHH-7 (liver, adherent) | 0.93 | > 2.56 | 0.989 | > 5
JHU-011 (head and neck, adherent) | 0.849 | 1.87 | 0.978 | > 5
JHU-022 (head and neck, adherent) | 0.962 | > 2.56 | 0.97 | > 5
JHU-029 (head and neck, adherent) | 0.814 | 1.81 | 0.959 | > 5
JIMT-1 (breast, adherent) | 0.978 | > 2.56 | 0.983 | > 5
JSC-1 (B-cell lymphoma, suspension) | 0.904 | > 2.56 | 0.985 | > 5
K2 (melanoma, adherent) | 0.977 | > 2.56 | 0.982 | > 5
KARPAS-620 (haematopoietic neoplasm, suspension) | 0.939 | > 2.56 | 0.991 | > 5
KLE (endometrium, adherent) | 0.954 | > 2.56 | 0.956 | > 5
KMH-2 (thyroid, adherent) | 0.925 | > 2.56 | 0.985 | > 5
KMRC-1 (kidney, adherent) | 0.984 | > 2.56 | 0.987 | > 5
KMRC-20 (kidney, adherent) | 0.988 | > 2.56 | 0.983 | > 5
KON (head and neck, adherent) | 0.975 | > 2.56 | 0.985 | > 5
KOPN-8 (B-cell leukaemia, suspension) | 0.779 | 0.892 | 0.982 | > 5
KOSC-2 (head and neck, adherent) | 0.981 | > 2.56 | 0.944 | > 5

Cell Line | AUC (PAC-1) | IC50 (PAC-1) [µM] | AUC (BMS-708163) | IC50 (BMS-708163) [µM]
KP-1N (pancreas, adherent) | 0.863 | 2.39 | 0.984 | > 5
KP-2 (pancreas, adherent) | 0.872 | > 2.56 | 0.986 | > 5
KP-3 (pancreas, adherent) | 0.848 | 2.48 | 0.972 | > 5
KP-4 (pancreas, adherent) | 0.987 | > 2.56 | 0.98 | > 5
KU-19-19 (bladder, adherent) | 0.985 | > 2.56 | 0.971 | > 5
KYM-1 (rhabdomyosarcoma, adherent) | 0.99 | > 2.56 | 0.991 | > 5
KYSE-50 (oesophagus, adherent) | 0.99 | > 2.56 | 0.986 | > 5
KYSE-70 (oesophagus, adherent) | 0.98 | > 2.56 | 0.977 | > 5
KYSE-140 (oesophagus, adherent) | 0.824 | 1.79 | 0.983 | > 5
KYSE-150 (oesophagus, adherent) | 0.893 | > 2.56 | 0.935 | > 5
KYSE-180 (oesophagus, adherent) | 0.903 | > 2.56 | 0.985 | > 5
KYSE-220 (oesophagus, adherent) | 0.973 | > 2.56 | 0.956 | > 5
KYSE-270 (oesophagus, adherent) | 0.808 | 1.1 | 0.979 | > 5
KYSE-410 (oesophagus, adherent) | 0.787 | 1.19 | 0.983 | > 5
KYSE-450 (oesophagus, adherent) | 0.826 | 1.43 | 0.981 | > 5
KYSE-510 (oesophagus, adherent) | 0.872 | 1.76 | 0.991 | > 5
KYSE-520 (oesophagus, adherent) | 0.933 | > 2.56 | 0.915 | > 5
LC-1-sq (lung squamous cell carcinoma, adherent) | 0.887 | > 2.56 | 0.979 | > 5
LCLC-103H (large cell lung carcinoma, adherent) | 0.74 | 0.717 | 0.991 | > 5
LK-2 (lung squamous cell carcinoma, adherent) | 0.893 | > 2.56 | 0.954 | > 5
LN-18 (glioma, adherent) | 0.981 | > 2.56 | 0.982 | > 5
LN-229 (glioma, adherent) | 0.985 | > 2.56 | 0.98 | > 5
LN-405 (glioma, adherent) | 0.979 | > 2.56 | 0.913 | > 5
LNZTA3WT4 (glioma, adherent) | 0.974 | > 2.56 | 0.968 | > 5
LOU-NH91 (lung squamous cell carcinoma, adherent) | 0.979 | > 2.56 | 0.981 | > 5

Cell Line | AUC (PAC-1) | IC50 (PAC-1) [µM] | AUC (BMS-708163) | IC50 (BMS-708163) [µM]
LS-180 (large intestine, adherent) | 0.967 | > 2.56 | 0.975 | > 5
LU-99A (large cell lung carcinoma, adherent) | 0.974 | > 2.56 | 0.987 | > 5
LU-135 (small cell lung carcinoma, suspension) | 0.883 | 1.93 | 0.991 | > 5
M14 (melanoma, adherent) | 0.977 | > 2.56 | 0.952 | > 5
MC-IXC (neuroblastoma, adherent) | 0.96 | > 2.56 | 0.995 | > 5
MCF7 (breast, adherent) | 0.92 | > 2.56 | 0.964 | > 5
MDA-MB-157 (breast, adherent) | 0.951 | > 2.56 | 0.889 | > 5
MDA-MB-175-VII (breast, adherent) | 0.977 | > 2.56 | 0.986 | > 5
MDA-MB-231 (breast, adherent) | 0.982 | > 2.56 | 0.982 | > 5
MDA-MB-361 (breast, adherent) | 0.96 | > 2.56 | 0.945 | > 5
MDA-MB-415 (breast, adherent) | 0.982 | > 2.56 | 0.942 | > 5
MDA-MB-436 (breast, adherent) | 0.981 | > 2.56 | 0.962 | > 5
MDA-MB-453 (breast, adherent) | 0.973 | > 2.56 | 0.921 | > 5
MDA-MB-468 (breast, adherent) | 0.987 | > 2.56 | 0.966 | > 5
ME-180 (cervix, adherent) | 0.98 | > 2.56 | 0.965 | > 5
MEL-JUSO (melanoma, adherent) | 0.854 | 2.41 | 0.935 | > 5
MES-SA (uterus, adherent) | 0.976 | > 2.56 | 0.93 | > 5
MFE-280 (endometrium, adherent) | 0.94 | > 2.56 | 0.982 | > 5
MFE-296 (endometrium, adherent) | 0.984 | > 2.56 | 0.985 | > 5
MFE-319 (endometrium, adherent) | 0.972 | > 2.56 | 0.984 | > 5
MG-63 (osteosarcoma, adherent) | 0.97 | > 2.56 | 0.933 | > 5
MHH-ES-1 (Ewing sarcoma, adherent) | 0.887 | > 2.56 | 0.956 | > 5
MIA-PaCa-2 (pancreas, adherent) | 0.984 | > 2.56 | 0.977 | > 5
MKN1 (stomach, adherent) | 0.9 | > 2.56 | 0.986 | > 5

Source: the supplement of paper PMC4967469
